# Reference: PMC4336329 (PLoS ONE, 2015)
# The whole screen tested about 310,000 compounds, of which about 2,200 (0.71%) showed an effect of 50% or more. Effects have a minus sign here. The list shows a part of the results.
# Biological target: human ether-à-go-go-related gene (hERG) potassium channel (human, UniProt Q12809)
# Test: primary screen, population patch clamp on CHO cells stably expressing hERG
# human ether-à-go-go-related gene (hERG) potassium channel, sequence (Q12809 whole entry, looked up): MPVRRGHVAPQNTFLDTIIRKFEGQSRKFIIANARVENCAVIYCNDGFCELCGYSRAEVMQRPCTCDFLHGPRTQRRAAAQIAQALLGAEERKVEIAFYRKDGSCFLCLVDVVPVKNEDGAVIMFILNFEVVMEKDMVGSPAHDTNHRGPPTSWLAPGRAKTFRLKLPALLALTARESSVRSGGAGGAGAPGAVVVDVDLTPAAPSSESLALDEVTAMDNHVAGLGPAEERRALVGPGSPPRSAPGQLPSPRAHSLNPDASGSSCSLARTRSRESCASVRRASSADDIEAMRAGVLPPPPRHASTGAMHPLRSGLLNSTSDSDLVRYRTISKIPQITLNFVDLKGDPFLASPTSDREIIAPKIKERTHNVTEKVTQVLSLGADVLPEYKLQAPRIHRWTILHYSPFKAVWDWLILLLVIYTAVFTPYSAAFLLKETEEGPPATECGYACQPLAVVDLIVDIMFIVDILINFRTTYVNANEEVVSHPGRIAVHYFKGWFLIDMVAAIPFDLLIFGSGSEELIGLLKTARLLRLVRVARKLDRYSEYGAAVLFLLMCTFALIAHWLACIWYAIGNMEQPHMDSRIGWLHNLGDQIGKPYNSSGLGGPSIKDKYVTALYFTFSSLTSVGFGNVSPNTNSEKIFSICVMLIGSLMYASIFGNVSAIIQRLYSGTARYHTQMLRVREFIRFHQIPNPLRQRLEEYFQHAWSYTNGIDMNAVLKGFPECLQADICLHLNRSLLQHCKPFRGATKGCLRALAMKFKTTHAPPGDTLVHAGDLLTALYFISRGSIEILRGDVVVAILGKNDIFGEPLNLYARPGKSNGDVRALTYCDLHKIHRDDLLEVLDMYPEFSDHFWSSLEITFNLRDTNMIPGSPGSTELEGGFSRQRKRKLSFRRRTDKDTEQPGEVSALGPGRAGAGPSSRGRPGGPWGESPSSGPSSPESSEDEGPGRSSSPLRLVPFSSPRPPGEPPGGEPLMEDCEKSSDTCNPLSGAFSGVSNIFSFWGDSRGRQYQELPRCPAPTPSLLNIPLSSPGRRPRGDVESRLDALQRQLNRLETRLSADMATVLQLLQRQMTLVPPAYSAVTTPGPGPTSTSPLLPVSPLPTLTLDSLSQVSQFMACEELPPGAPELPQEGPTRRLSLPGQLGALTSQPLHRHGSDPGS
row,Structure (SMILES),"hERG current change (%, negative = inhibition) at 1uM [%]"
1,Cc1ccc(C)[n+](CC(=O)c2ccc(-c3ccccc3)cc2)c1.[Cl-],6.11
2,Cc1nc(N2CCN(Cc3ccccc3)CC2)nc2c1C(=O)CC(C)C2 (stereo not shown),17.4
3,O=S(=O)(Nc1cccc(-n2cnnn2)c1)c1ccc(Cl)nc1,12.8
4,CCOC(=O)Cc1nnc(Nc2ccc(C)cc2C)c2ccccc12,5.17
5,CN(C)/C=C1/NC(=S)NC1=O,-0.297
6,COc1ccc(C(=O)NC(=S)NNC(=O)c2ccco2)cc1,15.3
7,Cc1c(C)c2ccc(OCC(=O)Nc3ccccn3)cc2oc1=O,16.2
8,O=C(O)CCOc1ccc2c(c1)OCCO2,1.91
9,O=S(=O)(Nc1ncnc2c1oc1ccccc12)c1ccc(Cl)s1,11.7
10,Cc1cccc(C)c1OCC(O)Cn1ccnc1C (stereo not shown),9.73
11,O=C(CC1Nc2ccccc2NC1=O)NCCc1ccccc1 (stereo not shown),2.61
12,COc1ccc(-c2nc(CSCC(=O)NC3CCCc4ccccc43)c(C)o2)cc1 (stereo not shown),7.69
13,NC(=NCCc1ccccc1)NS(=O)(=O)c1ccc(F)cc1,8.18
14,Cc1cc(C)c(C)c(S(=O)(=O)N2CCC(C(=O)N3CCCC3)CC2)c1C,-3.51
15,Cc1ccc(OCC(=O)Nc2cc(C)on2)c([N+](=O)[O-])n1,9.7
16,CN=C(SCc1ccccc1)c1c(O)n(C)c(=O)n(C)c1=O,7.13
17,COC(C(=O)N1CCC(n2nccc2NC(=O)C2CC2)CC1)c1ccccc1 (stereo not shown),11.1
18,COc1ccc(C)cc1NC(=O)C(Sc1nnc(Nc2cc(C)ccc2OC)s1)c1ccccc1 (stereo not shown),-0.146
19,OCC1(Cc2ccccc2C(F)(F)F)CCN(Cc2ccc3c(c2)CCO3)CC1,4.73
20,Cc1ccc(SCCC(=O)Nc2ccccc2C(=O)NC2CCCCC2)cc1,10.1
21,CCOc1ccc(NC(=S)c2ccncc2)cc1,10.3
22,Cc1c(Cl)c([N+](=O)[O-])nn1CCCC(=O)NC(C)c1ccccc1 (stereo not shown),0.0382
23,C/C(=N\NC(=O)CC1N=C(Cc2ccccc2)NNC1=O)c1ccc(Cl)cc1Cl (stereo not shown),-2.12
24,CC1CN(C(=O)CCC(=O)NCc2ccc(Cl)cc2)c2ccccc2S1 (stereo not shown),-5.88
25,Cc1ccc(C(CCN)c2ccco2)cc1 (stereo not shown),4.59
26,CN(C(=O)Cn1nnc2ccccc2c1=O)C1CCCCC1,-2.85
27,COc1ccc(NC(=O)N2CCCC2C(=O)Nc2ccc(C)cc2C)cc1 (stereo not shown),13.1
28,COc1ccc(S(=O)(=O)n2nc(OC(=O)c3ccccc3Br)cc2N)cc1,6.05

row,Structure (SMILES),"hERG current change (%, negative = inhibition) at 1uM [%]"
1,Cc1cccc(C(=O)N2CCC(=O)N(C(COCc3cccc(Cl)c3)Cc3ccccc3)CC2)c1 (stereo not shown),8.09
2,O=C(Nc1ccc(NC(=O)c2ccccn2)cc1)C(=O)Nc1ccc2c(c1)OCCO2,17.3
3,c1ccc(Cn2nnnc2CN2CCOCC2)cc1,2.76
4,Cc1cc(C[n+]2cc(Br)ccc2N)c2ncccc2c1.[Br-],-34.2
5,CC(=O)c1ccc(N2CCN(S(=O)(=O)c3ccc4ccccc4c3)CC2)cc1,-2.98
6,COc1ccccc1N1CCN(C(=O)c2noc(C(C)C)c2[N+](=O)[O-])CC1,23.5
7,COc1ccc(C(=O)Nc2ccccc2C(=O)NC(Cc2ccc(O)cc2)C(=O)NNC(=O)c2ccc(C)cc2)cc1 (stereo not shown),1.6
8,COc1ccc(-c2ccc3oc(-c4ccc(OC)cc4)c(C#CCCO)c3c2)cc1,1.64
9,CC(=O)N[C@@H](Cc1c[nH]c2ccccc12)C(=O)OCc1ccc(C#N)cc1,-1.17
10,O=C1ON=C(c2cccc([N+](=O)[O-])c2)/C1=C/c1ccc(O)cc1,15.6
11,O=C1CSC(c2ccccc2F)N1c1ccccc1 (stereo not shown),8.62
12,COc1ccc(NS(=O)(=O)c2ccc(NS(=O)(=O)c3ccc(SC)cc3)cc2)c(OC)c1,6.71
13,CCCc1cc(=O)[nH]c(/N=C(/NC(=O)C(C)N2C(=O)c3ccccc3C2=O)Nc2ccccc2)n1 (stereo not shown),15
14,COc1ccccc1C1/C(=C(/O)c2ccc(OC(C)C)cc2)C(=O)C(=O)N1c1cc(C)on1 (stereo not shown),8.98
15,Cn1c(COc2cccc3cccnc23)nnc1SCC(=O)O,12.1
16,O=C(Nc1nnc(SCc2ccccc2F)s1)C1=COCCO1,-2.96
17,COc1cc(NS(=O)(=O)c2c(C)oc3c(F)c(F)c(F)c(F)c23)cc(OC)c1OC,2.11
18,COc1ccc(/C=C2/C(=O)N=C(N)N2C)cc1OC,9.58
19,COc1ccc(C/C(C)=N/NC(=S)Nc2ccccc2)cc1,7.72
20,COc1cc2c(cc1OC)[C@H](Cc1ccc(O)cc1)NCC2,10.8
21,CN1CCCN(C(=O)COc2ccccc2Br)CC1,3.64
22,CN(C)S(=O)(=O)c1cccc(NC(=O)c2ccc(Sc3nncn3C)c([N+](=O)[O-])c2)c1,12.7
23,Nn1c(COc2cccc(Cl)c2)nc2ccccc2c1=O,-1.31
24,COC(=O)Nc1ccc(S(=O)(=O)Nc2ccccc2F)cc1,11.8
25,O=C(Cc1ccc(S(=O)(=O)N2CCOCC2)s1)Nc1cc(C(F)(F)F)ccc1N1CCCC1,15.2
26,Cc1ccc(-c2cc(C(=O)Nc3ccc4c(c3)OCCO4)c3ccccc3n2)cc1,10.4
27,CC(C)(C)C(=O)NC(=S)Nc1ccc(Cl)c(C(=O)O)c1,10.2
